About 7,200 (1.8%) of roughly 410,000 compounds were called active. The inconclusive results got no clear call from the source; some entries with a clear call stand among them for comparison. Calls follow the shape of the dose curve; as a rule, active = well fitted activation curve with a large enough effect; inconclusive = small, poorly fitted or top-dose-only effect, or another doubt; inactive = no such curve, though single readings can be large or run the other way. Potencies of inconclusive entries are left out as doubtful fits.
Experiment: qHTS of TDP-43 Inhibitors; also: nearly all actives have a fitted effect of over 50% in size; as to growth rescue (activation): % of control where 0% means no effect
Conditions: TDP-43 expressing yeast growth rescue, BacTiter-Glo, 24 h; growth rescue (activation): at 46.1 µM (top of the series) unless noted
Method in brief: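 Cell-based yeast growth screen: TDP-43 expression induced in galactose, inoculum OD600=0.02 after raffinose pregrowth to mid-log. Read-out BacTiter-Glo luminescence at 24 hr, 30 deg C; inhibition of toxicity seen as signal increase.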
Potency is read from the fitted curve at half-maximal effect; tags tell the direction and shape of the fitted curve.

SMILES	Potency	growth rescue (activation)
O=C(COc1ccc(Cl)cc1Cl)NCCC1=CCCCC1	inconclusive [activator, partial curve]	
CC1CCN(C(=O)CSc2c3c(nc4ccc(Cl)cc24)CCCC3)CC1	inconclusive [activator, single point]	
O=C(COc1ccc(F)cc1)Nc1nnc(S(=O)(=O)N2CCc3ccccc32)s1		inactive: 14%
Oc1ccc(C[C@H]2CNC(=S)N2CC2CCCN2C[C@H](Cc2ccc(O)cc2)N2C[C@H](Cc3ccc(O)cc3)N(CC3CCCCCC3)C2=S)cc1 (stereo partly drawn)	inconclusive [activator, single point]	
COc1ccc(/C=N/NC(=O)Cc2csc(Nc3cccc(C(F)(F)F)c3)n2)cc1C		inactive: 12.6%
Cc1ccc(N2CC(C(=O)NCCS(=O)(=O)N3CCN(c4ccccc4F)CC3)CC2=O)cc1 (stereo not drawn)	inconclusive [activator, single point]	
CCOC(=O)c1csc(COc2ccccc2Cl)n1	inconclusive [activator, partial curve]	
COc1ccc2nc(NC(=O)c3nc(S(=O)(=O)Cc4ccccc4F)ncc3Cl)sc2c1	inconclusive [activator, full curve]	
CCOc1ccccc1OCC(=O)Nc1ccc(S(=O)(=O)N(C)C)cc1	inconclusive [activator, partial curve, poor fit]	
Cc1ccc(SCCNC(=S)Nc2ccccc2)cc1	inconclusive [activator, single point]	
COc1ccc(N2CCN(C(=O)C(=O)c3cccc([N+](=O)[O-])c3)CC2)cc1	inconclusive [activator, partial curve]	
CCOCCc1nnc(NC(=O)C(=O)c2cc(C)n(-c3cccc(C)c3)c2C)s1	active: 35.5 µM	
CCCCN(C)CCCNC(=O)Cn1ncc2c3ccccc3n(Cc3cccc(Cl)c3)c2c1=O		inactive: 19.1% [at 9.22 µM]
CNC(=S)N1N=C(c2ccc(OC)cc2)CC1c1ccccc1Cl (stereo not drawn)	active: 3.16 µM	
CCOc1ccc2nc(NC(=O)Cc3cccs3)sc2c1	inconclusive [activator, partial curve]	
COc1cc2c(c(OC)c1OC)-c1c(cc3c(c1O)OCO3)C[C@@H](C)[C@@H](C)C2	inconclusive [activator, single point]	
Cc1ccccc1CN1CCc2nc(N3CCN(c4ncccn4)CC3)ncc2C1		inactive: 8.47%
COc1ccc(CCCc2nnc(SCC(=O)Nc3cccc(C)c3)o2)cc1C	inconclusive [activator, full curve, poor fit]	

— PubChem BioAssay AID652104 (National Center for Advancing Translational Sciences (NCATS), 2013)
